# According to PubChem BioAssay AID624417 (National Center for Advancing Translational Sciences (NCATS), 2012):
# Screen size: about 410,000 compounds; about 6,400 (1.6%) were called active. The shares of active, inactive and inconclusive entries below differ from those in the screen. Calls come from the whole dose curve; as a rule, active = well fitted inhibition curve with a large enough effect; inconclusive = small, poorly fitted or top-dose-only effect; inactive = no such curve, though single readings can be large or run the other way. No potency is given beside an inconclusive call; the fits are too rough.
# Molecular target: Glucagon-like peptide 1 receptor (Homo sapiens) (UniProt P43220)
# Assay: qHTS of GLP-1 Receptor Inverse Agonists (Inhibition Mode); note: nearly all actives have a fitted effect of over 55% in size
# Conditions: HEK293 GLP-1R CRE-luciferase, luminescence, 24 h, GLP-1R form is constitutively active; activity change, negative = inhibition: at 38.3 µM (top of the series) unless noted
# How it was run: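 HEK293 cells stably co-expressing constitutively active GLP-1R and a cAMP-responsive luciferase reporter were seeded in DMEM with 10% Nu serum, given compounds after 12 h, and incubated 24 h at 37 deg C. Luminescence was then read.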
# % is set by controls: 0 for no effect and ±100 for the full control effect; potency is the fitted concentration of half-maximal effect; tags give direction and shape of the fitted curve.
# Chain of UniProt P43220 (P43220 whole entry, looked up): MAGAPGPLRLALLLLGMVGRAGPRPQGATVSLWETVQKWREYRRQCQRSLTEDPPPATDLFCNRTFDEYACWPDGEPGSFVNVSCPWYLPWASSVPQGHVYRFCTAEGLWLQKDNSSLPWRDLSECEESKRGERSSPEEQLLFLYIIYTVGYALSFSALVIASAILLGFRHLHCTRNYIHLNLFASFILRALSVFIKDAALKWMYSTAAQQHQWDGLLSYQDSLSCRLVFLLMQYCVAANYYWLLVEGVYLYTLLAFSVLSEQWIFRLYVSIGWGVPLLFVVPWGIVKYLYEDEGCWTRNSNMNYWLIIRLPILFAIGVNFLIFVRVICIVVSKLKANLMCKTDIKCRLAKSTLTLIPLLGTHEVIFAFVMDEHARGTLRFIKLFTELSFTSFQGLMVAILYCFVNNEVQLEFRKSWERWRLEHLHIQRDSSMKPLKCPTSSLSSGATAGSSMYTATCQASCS
Structure (SMILES),Potency,"activity change, negative = inhibition"
COc1ccc(NC(=O)CN2CCC(C(=O)c3ccc(C)cc3)CC2)c(OC)c1,"inconclusive [inhibitor, partial curve, poor fit]",–
CC1(Cc2ccc(C(F)(F)F)o2)C(=O)Nc2cc(-c3ccc(F)cc3F)ccc21 (stereo not drawn),"inconclusive [inhibitor, partial curve, poor fit]",–
N#CCSc1nc2c(cc1C#N)CCCCCC2,"inconclusive [inhibitor, single point]",–
O=c1[nH]cnc2c1c(-c1ccccc1)cn2-c1cccc(Cl)c1,"inconclusive [inhibitor, single point]",–
COc1ccc(/C=C/C(=O)C2CC2)cc1COc1c(C)cccc1C,"inconclusive [inhibitor, partial curve, poor fit]",–
COc1ccc(CNc2nc(=S)[nH]c3cc(OC)c(OC)cc23)cc1,–,inactive: 17.8%
N#C/C(=C/c1ccc(N2CCOCC2)o1)c1nc2ccccc2[nH]1,"inconclusive [inhibitor, single point]",–
CCc1ccc2nc(N3CCN(C(=O)C(C)(C)C)CC3)sc2c1,"inconclusive [inhibitor, partial curve, poor fit]",–
COc1ccc(C(=O)NC(=S)N(C)C2CCCCC2)cc1,"inconclusive [inhibitor, single point]",–
C=CC[C@@H](CC(=O)N[C@H](CO)Cc1ccccc1)C(=O)N[C@@H](COC(=O)[C@@H](CC=C)CC(=O)OC(C)(C)C)Cc1c[nH]c2ccccc12,"inconclusive [inhibitor, single point]",–
Cc1c(Cl)cccc1NC(=O)COC(=O)C12CC3CC(CC(O)(C3)C1)C2,"inconclusive [inhibitor, partial curve, poor fit]",–
COc1ccc(/C=C(/C(=O)c2cccs2)N2C=CC=CC2=C(C#N)C#N)cc1,"inconclusive [inhibitor, single point]",–
CN1CCN(c2ncccc2S(=O)(=O)N2CCCCC2)CC1,–,inactive: -20.9%
CCN(CC)c1ccc(NC(=O)CCCOc2cccc(C)c2)cc1,"inconclusive [inhibitor, partial curve, poor fit]",–
CN1CCN(C2CN(C3CCCCC3)S(=O)(=O)C2)CC1 (stereo not drawn),–,inactive: 6.25%
Clc1ccc(CCNC(c2nnc(-c3ccccc3)o2)c2ccccc2Cl)cc1 (stereo not drawn),"inconclusive [inhibitor, single point]",–
Cc1ccc2[nH]c(=O)c(CN(Cc3cccs3)Cc3nnnn3Cc3ccccc3)cc2c1,"inconclusive [inhibitor, single point]",–
C/C(=N\NC(=O)c1ccc(F)cc1)c1ccc(NC(=O)Cc2ccccc2)cc1,"inconclusive [inhibitor, partial curve, poor fit]",–
O=C(NCCCNC(=O)c1ccc(-c2cc(Cl)ccc2Cl)o1)c1cnccn1,"inconclusive [inhibitor, single point]",–

Structure (SMILES),Potency,"activity change, negative = inhibition"
COc1ccc2[nH]c(C(O)(Cc3cccnc3)Cc3cccnc3)cc2c1,"inconclusive [inhibitor, partial curve, poor fit]",–
CN1C(=O)c2ccccc2Sc2ccc(NC(=O)N3CCN(c4ccccc4F)CC3)cc21,–,inactive: -20.3%
O=C(CC1SC(=Nc2ccc(OC(F)F)cc2)N(CCN2CCOCC2)C1=O)Nc1ccc(F)cc1F (stereo not drawn),"inconclusive [inhibitor, partial curve, poor fit]",–
CC(O)(c1ccc(F)c(F)c1)c1nc(-c2ccc(Cl)cc2)cs1 (stereo not drawn),"inconclusive [inhibitor, single point]",–
Cc1ccc(SC[C@H](CC(C)C)N2CCN(CCc3ccccc3)CCC2=O)cc1,"inconclusive [inhibitor, single point]",–
Cc1ccc2cc(CN(Cc3ccc(F)cc3)Cc3nnnn3C3CCCC3)c(=O)[nH]c2c1,"inconclusive [inhibitor, single point]",–
CCOc1ccc(C(=O)Nc2cc(S(=O)(=O)Nc3ccccc3Cl)ccc2N2CCOCC2)cc1,"inconclusive [inhibitor, partial curve, poor fit]",–
S=C(N/N=C/c1ccccc1Cl)Nc1ccccc1,"inconclusive [inhibitor, partial curve, poor fit]",–
CC(=O)c1ccc(NC(=O)COC(=O)C2CC3C=CC2C3)cc1 (stereo not drawn),"inconclusive [inhibitor, full curve, poor fit]",–
COc1ccc(NC(=O)c2noc3c2CCC3)cc1,"inconclusive [inhibitor, single point]",–
COc1ccc(-c2cn3ccccc3n2)cc1,"inconclusive [inhibitor, partial curve, poor fit]",–
COc1ccc(NC(=O)CNC(c2ccccc2)c2ccccc2)cc1Cl,"inconclusive [inhibitor, partial curve, poor fit]",–
O=C(CCn1cnc2onc(-c3ccc(F)cc3)c2c1=O)N1CCN(c2ccc(F)cc2)CC1,"inconclusive [inhibitor, partial curve, poor fit]",–
COc1cccc(C2CCCCN2Cc2nc(-c3ccc(C)o3)oc2C)c1 (stereo not drawn),"inconclusive [inhibitor, single point]",–
Cc1cccc(Nc2nc(N)c([N+](=O)[O-])c(NCc3ccco3)n2)c1,"inconclusive [inhibitor, single point]",–
CCN1CCN(Cc2cc(=O)oc3cc4c(cc23)CCC4)CC1,"inconclusive [inhibitor, single point]",–
CC(C(=O)NCC1CCCCC1)N(C)Cc1ccc(Br)cc1 (stereo not drawn),"inconclusive [inhibitor, single point]",–
Cc1ccccc1NC(=O)c1c(NC(=O)C(C)Oc2cccc(Cl)c2)sc2c1CCCC2 (stereo not drawn),–,inactive: 21%
CCc1c(C)sc2c1CCN(C(=O)Nc1ccccc1C(F)(F)F)C2c1ccccc1 (stereo not drawn),"inconclusive [inhibitor, single point]",–
